# Several values for one entry are separate records, joined by “and”; a condition that tells them apart may be missing. Equal values may be shown once. Inconclusive results, whose numbers are uncertain, are shown with a selection of clear calls. A potency beside an inconclusive call is a rough fit, not a confirmed value. A structure can be active in one record and inactive in another. Activity calls are given as the source filed them. Unless noted, the call rests on the fitted dose curve; in most records, active means well fitted curve in the direction sought with a large enough effect in the repeat runs; inconclusive means weak or mixed curves; inactive means no such curve, though single readings can be large; an effect the other way counts as inactive or inconclusive.
# Tests used:
# [1] = qHTS assay to identify small molecule antagonists of the estrogen related receptor (ERR) signaling pathway from Tox21 library - cell viability counter screen (AID 1224834); further: nearly all actives have a fitted effect of over 30% in size; on viability change, negative = cytotoxic: on the % scale 0 is the no-effect control and ±100 the full control effect
# Outline: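 Seeded ERR cells were rested 6 h at 37 C/5% CO2 before compounds, positive and negative controls or DMSO were added. Incubation continued for 17.5 h, and viability was then quantified by CellTiter-Fluor fluorescence.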
# [2] = qHTS assay to identify small molecule agonists of the constitutive androstane receptor (CAR) signaling pathway - cell viability counter screen (AID 1224836); further: nearly all actives have a fitted effect of over 45% in size; on viability change, negative = cytotoxic: on the % scale 0 is the no-effect control and ±100 the full control effect
# Outline: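 23 h treatment, 37 C, 5% CO2. Cell line: HepG2 stably expressing hCAR with a CYP2B6-2.2kb construct. Co-treatment: PK11195, 0.75 uM final. Read-out: CellTiter-Fluor fluorescence intensity.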
# [3] = qHTS assay to identify small molecule agonists of the hypoxia (HIF-1) signaling pathway - cell viability counter screen (AID 1224844; calls by dose curve; further: nearly all actives have a fitted effect of over 50% in size)
# Outline: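 HRE-bla ME-180; 0.5% dFBS; cpd 17 h, 37C, 5% CO2; CellTiter-Glo lum., 30 min RT, post-FRET read, same wells.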
# [4] = qHTS assay to identify small molecule agonists of H2AX (AID 1224845; active means well fitted activation curve with a large enough effect in the signal ratio in the repeat runs, not every such curve was filed as active; inconclusive means weak or mixed curves; the % refers to the signal ratio; on activation (H2AX phosphorylation): on the % scale 0 is the no-effect control and ±100 the full control effect); settings: CHO-K1 phospho-H2AX Ser139 HTRF, 3 h; activation (H2AX phosphorylation): at 154 µM (top of the series) unless noted
# Outline: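 Phospho-H2AX Ser139 measured by HTRF (ex 320 nm; em 665 and 620 nm) after 24 hr antibody incubation. Compounds, 15 concentrations, 0.76% DMSO, were applied to CHO-K1 cells for 3hr at 37C before lysis.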
# [5] = qHTS RealTime-Glo MT Cell Viability Assay in HEK293 cells - 32 hour (AID 1224868); further: nearly all actives have a fitted effect of over 50% in size
# Outline: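 Viability tracked continuously by luminescence as live cells reduce a prosubstrate for NanoLuc; HEK293 cells preincubated 5 h, compound-treated at 37 C, and read at 0, 8, 16, 24, 32 and 40 h.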
# [6] = target: Luciferin 4-monooxygenase (Photinus pyralis) (UniProt P08659); assay: qHTS assay to identify small molecule inhibitors of firefly luciferase (AID 1224835); further: nearly all actives have a fitted effect of over 25% in size
# Chain of UniProt P08659 (P08659 whole entry, looked up): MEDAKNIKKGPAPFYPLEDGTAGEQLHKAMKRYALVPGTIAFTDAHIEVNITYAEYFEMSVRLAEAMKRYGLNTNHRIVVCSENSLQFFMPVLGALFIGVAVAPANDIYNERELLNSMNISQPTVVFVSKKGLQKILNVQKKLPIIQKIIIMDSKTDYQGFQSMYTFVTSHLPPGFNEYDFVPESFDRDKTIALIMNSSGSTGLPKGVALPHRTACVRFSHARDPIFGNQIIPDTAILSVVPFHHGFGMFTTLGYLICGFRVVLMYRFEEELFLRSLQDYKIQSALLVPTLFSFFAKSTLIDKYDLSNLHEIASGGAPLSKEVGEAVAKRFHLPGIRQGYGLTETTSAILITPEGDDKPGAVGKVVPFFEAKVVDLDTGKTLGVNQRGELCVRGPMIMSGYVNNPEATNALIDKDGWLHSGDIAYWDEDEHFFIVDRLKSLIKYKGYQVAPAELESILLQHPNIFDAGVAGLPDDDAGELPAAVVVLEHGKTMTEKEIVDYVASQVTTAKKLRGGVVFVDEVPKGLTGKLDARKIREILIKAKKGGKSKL
# Outline: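 Inhibition of purified Photinus luciferase is measured by luminescence. Substrate levels (D-luciferin, ATP) sit at their KM values. Each compound is tested in a concentration series.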
# [7] = target: Nuclear receptor subfamily 1 group I member 3 (Homo sapiens) (UniProt Q14994); assay: qHTS assay to identify small molecule agonists of the constitutive androstane receptor (CAR) signaling pathway (AID 1224839); further: nearly all actives have a fitted effect of over 15% in size
# Chain of UniProt Q14994 (Q14994 whole entry, looked up): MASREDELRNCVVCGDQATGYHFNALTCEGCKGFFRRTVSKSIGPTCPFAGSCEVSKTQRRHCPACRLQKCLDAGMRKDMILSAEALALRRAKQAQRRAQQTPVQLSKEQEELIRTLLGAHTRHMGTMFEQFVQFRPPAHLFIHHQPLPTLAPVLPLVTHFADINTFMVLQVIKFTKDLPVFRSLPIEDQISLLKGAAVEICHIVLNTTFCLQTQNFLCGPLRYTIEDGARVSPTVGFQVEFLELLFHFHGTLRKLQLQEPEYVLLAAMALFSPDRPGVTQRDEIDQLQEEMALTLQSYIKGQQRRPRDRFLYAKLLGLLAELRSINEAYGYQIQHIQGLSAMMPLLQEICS
# Outline: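 Compounds tested at 15 concentrations on HepG2 cells stably harbouring hCAR and CYP2B6-2.2kb reporter constructs, co-treated with PK11195 (0.75 uM final), 24 h at 37 C; luminescent reporter signal quantified.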
# [8] = qHTS assay to identify small molecule antagonists of the estrogen related receptor signaling pathway with the pleiotropic PPARgamma coactivator (PGC) from Tox21 10K library - cell viability counter screen (AID 1224840; active means well fitted cell-killing curve with a large enough effect in the repeat runs, not every such curve was filed as active; inconclusive means weak or mixed curves, or effect the other way; inactive means no such curve, though single readings can be large or run the other way; further: nearly all actives have a fitted effect of over 40% in size)
# Outline: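 Seeded PGC/ERR cells (2,000/well, 6 h, 37 C/5% CO2) get compound by pin tool; 17.5 h incubation at 37 C; CellTiter-Fluor added, 30 min, fluorescence measured.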
# [9] = target: Thyrotropin receptor (Homo sapiens) (UniProt P16473); assay: qHTS assay to identify small molecule agonists of the thyroid stimulating hormone receptor (TSHR) signaling pathway (AID 1224843; calls by dose curve; further: nearly all actives have a fitted effect of over 45% in size); settings: TSHR-HEK293 cells, cAMP HTRF, agonist mode, 30 min
# Chain of UniProt P16473 (P16473 whole entry, looked up): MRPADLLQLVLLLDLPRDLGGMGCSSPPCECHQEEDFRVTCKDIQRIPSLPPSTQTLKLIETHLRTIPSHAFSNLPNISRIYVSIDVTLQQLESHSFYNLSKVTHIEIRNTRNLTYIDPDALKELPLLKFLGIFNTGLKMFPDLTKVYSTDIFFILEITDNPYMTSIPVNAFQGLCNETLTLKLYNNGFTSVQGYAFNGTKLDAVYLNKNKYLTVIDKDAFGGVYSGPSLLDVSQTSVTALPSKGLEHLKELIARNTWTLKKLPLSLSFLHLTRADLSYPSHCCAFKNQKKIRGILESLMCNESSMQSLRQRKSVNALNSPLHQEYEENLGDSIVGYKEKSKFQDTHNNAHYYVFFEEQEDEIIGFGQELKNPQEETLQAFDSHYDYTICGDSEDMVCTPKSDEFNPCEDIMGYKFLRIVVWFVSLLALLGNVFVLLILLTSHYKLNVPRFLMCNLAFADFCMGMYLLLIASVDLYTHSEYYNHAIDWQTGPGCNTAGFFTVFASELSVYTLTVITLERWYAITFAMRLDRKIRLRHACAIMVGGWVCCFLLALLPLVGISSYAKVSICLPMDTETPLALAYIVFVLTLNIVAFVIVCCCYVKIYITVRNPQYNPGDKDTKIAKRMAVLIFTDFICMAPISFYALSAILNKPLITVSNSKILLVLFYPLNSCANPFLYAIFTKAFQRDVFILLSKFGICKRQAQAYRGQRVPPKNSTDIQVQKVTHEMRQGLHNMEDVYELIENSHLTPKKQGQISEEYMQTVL
# Outline: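 A cell-based cAMP HTRF format was run in TSHR-transfected HEK293 cells, 800 per well. Treatment: 30 min, room temperature. Detection: 1 h with labelled cAMP and anti-cAMP cryptate. Concentration-response over 15 points, three replicates.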
# [10] = qHTS assay to identify small molecule agonists of the hypoxia (HIF-1) signaling pathway (AID 1224846; active means well fitted activation curve with a large enough effect in the signal ratio in the repeat runs, not every such curve was filed as active; inconclusive means weak or mixed curves; the % refers to the signal ratio; on activation: on the % scale 0 is the no-effect control and ±100 the full control effect); settings: HRE-bla ME-180 cells, beta-lactamase ratio, 17 h; activation: at 76.8 µM (top of the series) unless noted
# Outline: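 Reporter induction in HRE-bla ME-180 cells is taken as agonism: cells sit 5 hrs after plating, receive compounds or DMSO only, incubate 17 hrs at 37C under 5% CO2, and are loaded with CCF4-AM for beta-lactamase FRET measurement.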
# [11] = activation: at 92.4 µM (top of the series) unless noted
# Potency means the concentration at half of the fitted maximal effect; tags describe the fitted curve by direction and shape or compound fluorescence and quenching.
smiles,measurement,setting,value
CCCCCC(C)O (stereo not given),Potency,[1],inactive
CCN(CC)CCCC(C)Nc1ccnc2cc(Cl)ccc12 (stereo not given),Potency,[1],"inconclusive: 3.66 µM [cytotoxic, full curve]"
same,"viability change, negative = cytotoxic",[1],inactive: -0.582% [at 8.39 µM]
same,Potency,[2],"inconclusive: 4.61 µM [cytotoxic, full curve, poor fit]"
same,Potency,[3],"inconclusive: 2.13 µM [cytotoxic, partial curve, poor fit]"
same,activation (H2AX phosphorylation),[4],inactive: 3.5% [at 14 µM] and inactive: -4.76% [at 31.6 µM]
same,Potency,[5],"inconclusive: 11.7 µM [cytotoxic, partial curve]"
O=C(c1ccccc1)c1ccc(Cl)cc1,Potency,[1],inactive
same,Potency,[6],inconclusive: 71 µM [inhibitor]
same,Potency,[2],inactive
same,Potency,[7],"inconclusive: 61.1 µM [activator, partial curve, poor fit]"
same,activation (H2AX phosphorylation),[4],inconclusive: 7.65%
Cc1cc(O)c2c(c1)C(=O)c1cccc(O)c1C2=O,Potency,[1],inactive
CCC(=O)/C=C/c1ccc(OC)cc1,Potency,[1],inactive
same,Potency,[6],active: 35.6 µM
CC(=O)Oc1ccc(C)cc1,Potency,[1],inactive
CCCCCCCCNC,Potency,[1],inactive
O=C1OC2(c3ccccc31)c1ccc(O)c(Br)c1Oc1c2ccc(O)c1Br,Potency,[1],"inconclusive: 61.1 µM [cytotoxic, single point]"
same,Potency,[6],active: 35.6 µM
same,Potency,[2],"inconclusive: 15.4 µM [rising, full curve]"
same,Potency,[8],"inconclusive: 8.63 µM [rising, partial curve]"
same,Potency,[9]; [11],"inconclusive: 54.5 µM [inhibitor, partial curve]"
same,Potency,[4],inconclusive: 56.6 µM [partial curve]
same,Potency,[10],"inconclusive: 38.9 µM [rising, partial curve]"
OCC(O)CS (stereo not given),Potency,[1],inactive
COC(=O)c1ccccc1C(=O)c1ccc(OCCN2CCCCC2)cc1,Potency,[1],inactive
COc1cccc(O)c1,Potency,[1],inactive
Cc1ccc(C(=O)C(C)CN2CCCCC2)cc1 (stereo not given),Potency,[1],inactive
Nc1ccc(Cl)c([N+](=O)[O-])c1,Potency,[1],"inconclusive: 17.2 µM [cytotoxic, full curve]"
COc1ccc(CCC(=O)c2c(O)cc(O[C@@H]3O[C@H](CO)[C@@H](O)[C@H](O)[C@H]3O[C@@H]3O[C@@H](C)[C@H](O)[C@@H](O)[C@H]3O)cc2O)cc1O,Potency,[1],inactive
same,Potency,[6],"inconclusive: 79.9 µM [inhibitor, partial curve]"
same,Potency,[2],inactive
same,Potency,[4],"inconclusive: 80.2 µM [falling, partial curve]"
same,Potency,[10],inactive
Cc1ccc(N)cc1[N+](=O)[O-],Potency,[1],"inconclusive: 69.1 µM [cytotoxic, single point]"
N#C[C@@H]1CC(F)(F)CN1C(=O)CNC1CC2CCC(C1)N2c1ncccn1 (stereo not given in full),Potency,[1],inactive
NC[C@H]1O[C@H](O[C@H]2[C@H](O)[C@@H](O[C@H]3O[C@H](CO)[C@@H](O)[C@H](N)[C@H]3O)[C@H](N)C[C@@H]2N)[C@H](N)[C@@H](O)[C@@H]1O,"viability change, negative = cytotoxic",[1],inactive: 2% [at 19 µM]
NS(=O)(=O)c1cc(-c2nn[nH]n2)c(NCc2cccs2)cc1Cl,Potency,[1],"inconclusive: 21.1 µM [cytotoxic, partial curve, poor fit]"
Cc1cccc(O)c1,Potency,[1],inactive
CCOc1ccc(NC(=O)CC(C)=O)cc1,Potency,[1],inactive
O=C(c1ccccc1)c1ccc(O)c(O)c1O,Potency,[1],"inconclusive: 68.6 µM [cytotoxic, single point]"
same,Potency,[6],"inconclusive: 45.2 µM [inhibitor, partial curve] and inconclusive: 35.6 µM [inhibitor, full curve]"
same,Potency,[8],"inconclusive: 61.6 µM [cytotoxic, single point]"
same,Potency,[3],"inconclusive: 49.4 µM [cytotoxic, partial curve, poor fit] and inconclusive: 49 µM [cytotoxic, partial curve, poor fit]"
same,Potency,[10],inactive
same,Potency,[5],"inconclusive: 49.4 µM [cytotoxic, partial curve, poor fit]"
CC1=C(O)C(=O)C(C)O1 (stereo not given),Potency,[1],inactive
O=C(O)c1cc(N=Nc2ccc(S(=O)(=O)Nc3ccccn3)cc2)ccc1O,Potency,[1],active: 27.4 µM and active: 27.3 µM and active: 23.7 µM
same,Potency,[6],"inconclusive: 56.4 µM [inhibitor, partial curve, poor fit]"
same,Potency,[8],"active: 30.7 µM and inconclusive: 27.3 µM [cytotoxic, partial curve]"
same,activation,[9]; [11],inconclusive: -11.8%
same,activation,[9]; at 42.5 µM (top of the series),inactive: 8.29%
same,activation,[9]; at 92.4 µM (top of the series),inactive: 8.84%
same,Potency,[3],"inconclusive: 24.6 µM [cytotoxic, full curve, poor fit]"
CC(C)(C)Cl,Potency,[1],inactive
CCC(C)(C)C,Potency,[1],inactive
CCCCCCCCSCc1cc(C)c(O)c(CSCCCCCCCC)c1,Potency,[1],inactive
CC[N+](C)(C)c1cccc(O)c1,Potency,[1],inactive
COC(=O)C(C)O (stereo not given),Potency,[1],inactive
Nc1cccc([N+](=O)[O-])c1,Potency,[1],inactive

# From PubChem BioAssay (Tox21)
